Source: the supplement of paper PMC11876631
± gives the standard deviation of the averaged measurements. Laboratory Escherichia coli strains with one amino-acid change in an essential protein, pooled on minimal glucose agar with carbenicillin or gentamicin at twice the control MIC (plus kanamycin and chloramphenicol for the plasmids), 48 h. Fold change of barcode share against drug-free plates; higher = less susceptible. Active = above 20 in both replicates (the paper's putatively resistant). '<' = one read or none on drug, '>' = one read or none on a drug-free plate. Shares are relative, so most strains fall below 1 when a few take over. Listed are strains with at least 15 reads on both drug-free plates, and hits; most hits rest on fewer reference reads. Replicate rank correlation about 0.5. Edits are read from barcodes.

B1: leuA I194W (protein)
chain: MSQQVIIFDTTLRDGEQALQASLSVKEKLQIALALERMGVDVMEVGFPVSSPGDFESVQTIARQVKNSRVCALARCVEKDIDVAAESLKVAEAFRIHTFIATSPMHIATKLRSTLDEVIERAIYMVKRARNYTDDVEFSCEDAGRTPIADLARVVEAAINAGATTINIPDTVGYTMPFEFAGIISGLYERVPNWDKAIISVHTHDDLGLAVGNSLAAVHAGARQVEGAMNGIGERAGNCSLEEVIMAIKVRKDILNVHTAINHQEIWRTSQLVSQICNMPIPANKAIVGSGAFAHSSGIHQDGVLKNRENYEIMTPESIGLNQIQLNLTSRSGRAAVKHRMDEMGYKESEYNLDNLYDAFLKLADKKGQVFDYDLEALAFIGKQQEEPEHFRLDYFSVQSGSNDIATAAVKLACGEEVKAEAANGNGPVDAVYQAINRITEYNVELVKYSLTAKGHGKDALGQVDIVANYNGRRFHGVGLATDIVESSAKAMVHVLNNIWRAAEVEKELQRKAQHNENNKETV
B2: leuA I194Q (protein)
chain: MSQQVIIFDTTLRDGEQALQASLSVKEKLQIALALERMGVDVMEVGFPVSSPGDFESVQTIARQVKNSRVCALARCVEKDIDVAAESLKVAEAFRIHTFIATSPMHIATKLRSTLDEVIERAIYMVKRARNYTDDVEFSCEDAGRTPIADLARVVEAAINAGATTINIPDTVGYTMPFEFAGIISGLYERVPNQDKAIISVHTHDDLGLAVGNSLAAVHAGARQVEGAMNGIGERAGNCSLEEVIMAIKVRKDILNVHTAINHQEIWRTSQLVSQICNMPIPANKAIVGSGAFAHSSGIHQDGVLKNRENYEIMTPESIGLNQIQLNLTSRSGRAAVKHRMDEMGYKESEYNLDNLYDAFLKLADKKGQVFDYDLEALAFIGKQQEEPEHFRLDYFSVQSGSNDIATAAVKLACGEEVKAEAANGNGPVDAVYQAINRITEYNVELVKYSLTAKGHGKDALGQVDIVANYNGRRFHGVGLATDIVESSAKAMVHVLNNIWRAAEVEKELQRKAQHNENNKETV
B3: leuA I194D (protein)
chain: MSQQVIIFDTTLRDGEQALQASLSVKEKLQIALALERMGVDVMEVGFPVSSPGDFESVQTIARQVKNSRVCALARCVEKDIDVAAESLKVAEAFRIHTFIATSPMHIATKLRSTLDEVIERAIYMVKRARNYTDDVEFSCEDAGRTPIADLARVVEAAINAGATTINIPDTVGYTMPFEFAGIISGLYERVPNDDKAIISVHTHDDLGLAVGNSLAAVHAGARQVEGAMNGIGERAGNCSLEEVIMAIKVRKDILNVHTAINHQEIWRTSQLVSQICNMPIPANKAIVGSGAFAHSSGIHQDGVLKNRENYEIMTPESIGLNQIQLNLTSRSGRAAVKHRMDEMGYKESEYNLDNLYDAFLKLADKKGQVFDYDLEALAFIGKQQEEPEHFRLDYFSVQSGSNDIATAAVKLACGEEVKAEAANGNGPVDAVYQAINRITEYNVELVKYSLTAKGHGKDALGQVDIVANYNGRRFHGVGLATDIVESSAKAMVHVLNNIWRAAEVEKELQRKAQHNENNKETV
B4: leuA I194P (protein)
chain: MSQQVIIFDTTLRDGEQALQASLSVKEKLQIALALERMGVDVMEVGFPVSSPGDFESVQTIARQVKNSRVCALARCVEKDIDVAAESLKVAEAFRIHTFIATSPMHIATKLRSTLDEVIERAIYMVKRARNYTDDVEFSCEDAGRTPIADLARVVEAAINAGATTINIPDTVGYTMPFEFAGIISGLYERVPNPDKAIISVHTHDDLGLAVGNSLAAVHAGARQVEGAMNGIGERAGNCSLEEVIMAIKVRKDILNVHTAINHQEIWRTSQLVSQICNMPIPANKAIVGSGAFAHSSGIHQDGVLKNRENYEIMTPESIGLNQIQLNLTSRSGRAAVKHRMDEMGYKESEYNLDNLYDAFLKLADKKGQVFDYDLEALAFIGKQQEEPEHFRLDYFSVQSGSNDIATAAVKLACGEEVKAEAANGNGPVDAVYQAINRITEYNVELVKYSLTAKGHGKDALGQVDIVANYNGRRFHGVGLATDIVESSAKAMVHVLNNIWRAAEVEKELQRKAQHNENNKETV
B5: aroA L352A (protein)
chain: MESLTLQPIARVDGTINLPGSKSVSNRALLLAALAHGKTVLTNLLDSDDVRHMLNALTALGVSYTLSADRTRCEIIGNGGPLHAEGALELFLGNAGTAMRPLAAALCLGSNDIVLTGEPRMKERPIGHLVDALRLGGAKITYLEQENYPPLRLQGGFTGGNVDVDGSVSSQFLTALLMTAPLAPEDTVIRIKGDLVSKPYIDITLNLMKTFGVEIENQHYQQFVVKGGQSYQSPGTYLVEGDASSASYFLAAAAIKGGTVKVTGIGRNSMQGDIRFADVLEKMGATICWGDDYISCTRGELNAIDMDMNHIPDAAMTIATAALFAKGTTTLRNIYNWRVKETDRLFAMATEARKVGAEVEEGHDYIRITPPEKLNFAEIATYNDHRMAMCFSLVALSDTPVTILDPKCTAKTFPDYFEQLARISQAA
B6: leuA I254A (protein)
chain: MSQQVIIFDTTLRDGEQALQASLSVKEKLQIALALERMGVDVMEVGFPVSSPGDFESVQTIARQVKNSRVCALARCVEKDIDVAAESLKVAEAFRIHTFIATSPMHIATKLRSTLDEVIERAIYMVKRARNYTDDVEFSCEDAGRTPIADLARVVEAAINAGATTINIPDTVGYTMPFEFAGIISGLYERVPNIDKAIISVHTHDDLGLAVGNSLAAVHAGARQVEGAMNGIGERAGNCSLEEVIMAIKVRKDALNVHTAINHQEIWRTSQLVSQICNMPIPANKAIVGSGAFAHSSGIHQDGVLKNRENYEIMTPESIGLNQIQLNLTSRSGRAAVKHRMDEMGYKESEYNLDNLYDAFLKLADKKGQVFDYDLEALAFIGKQQEEPEHFRLDYFSVQSGSNDIATAAVKLACGEEVKAEAANGNGPVDAVYQAINRITEYNVELVKYSLTAKGHGKDALGQVDIVANYNGRRFHGVGLATDIVESSAKAMVHVLNNIWRAAEVEKELQRKAQHNENNKETV
B7: leuA I254W (protein)
chain: MSQQVIIFDTTLRDGEQALQASLSVKEKLQIALALERMGVDVMEVGFPVSSPGDFESVQTIARQVKNSRVCALARCVEKDIDVAAESLKVAEAFRIHTFIATSPMHIATKLRSTLDEVIERAIYMVKRARNYTDDVEFSCEDAGRTPIADLARVVEAAINAGATTINIPDTVGYTMPFEFAGIISGLYERVPNIDKAIISVHTHDDLGLAVGNSLAAVHAGARQVEGAMNGIGERAGNCSLEEVIMAIKVRKDWLNVHTAINHQEIWRTSQLVSQICNMPIPANKAIVGSGAFAHSSGIHQDGVLKNRENYEIMTPESIGLNQIQLNLTSRSGRAAVKHRMDEMGYKESEYNLDNLYDAFLKLADKKGQVFDYDLEALAFIGKQQEEPEHFRLDYFSVQSGSNDIATAAVKLACGEEVKAEAANGNGPVDAVYQAINRITEYNVELVKYSLTAKGHGKDALGQVDIVANYNGRRFHGVGLATDIVESSAKAMVHVLNNIWRAAEVEKELQRKAQHNENNKETV
B8: leuA I254Q (protein)
chain: MSQQVIIFDTTLRDGEQALQASLSVKEKLQIALALERMGVDVMEVGFPVSSPGDFESVQTIARQVKNSRVCALARCVEKDIDVAAESLKVAEAFRIHTFIATSPMHIATKLRSTLDEVIERAIYMVKRARNYTDDVEFSCEDAGRTPIADLARVVEAAINAGATTINIPDTVGYTMPFEFAGIISGLYERVPNIDKAIISVHTHDDLGLAVGNSLAAVHAGARQVEGAMNGIGERAGNCSLEEVIMAIKVRKDQLNVHTAINHQEIWRTSQLVSQICNMPIPANKAIVGSGAFAHSSGIHQDGVLKNRENYEIMTPESIGLNQIQLNLTSRSGRAAVKHRMDEMGYKESEYNLDNLYDAFLKLADKKGQVFDYDLEALAFIGKQQEEPEHFRLDYFSVQSGSNDIATAAVKLACGEEVKAEAANGNGPVDAVYQAINRITEYNVELVKYSLTAKGHGKDALGQVDIVANYNGRRFHGVGLATDIVESSAKAMVHVLNNIWRAAEVEKELQRKAQHNENNKETV
B9: leuA I254D (protein)
chain: MSQQVIIFDTTLRDGEQALQASLSVKEKLQIALALERMGVDVMEVGFPVSSPGDFESVQTIARQVKNSRVCALARCVEKDIDVAAESLKVAEAFRIHTFIATSPMHIATKLRSTLDEVIERAIYMVKRARNYTDDVEFSCEDAGRTPIADLARVVEAAINAGATTINIPDTVGYTMPFEFAGIISGLYERVPNIDKAIISVHTHDDLGLAVGNSLAAVHAGARQVEGAMNGIGERAGNCSLEEVIMAIKVRKDDLNVHTAINHQEIWRTSQLVSQICNMPIPANKAIVGSGAFAHSSGIHQDGVLKNRENYEIMTPESIGLNQIQLNLTSRSGRAAVKHRMDEMGYKESEYNLDNLYDAFLKLADKKGQVFDYDLEALAFIGKQQEEPEHFRLDYFSVQSGSNDIATAAVKLACGEEVKAEAANGNGPVDAVYQAINRITEYNVELVKYSLTAKGHGKDALGQVDIVANYNGRRFHGVGLATDIVESSAKAMVHVLNNIWRAAEVEKELQRKAQHNENNKETV
B10: accA M114A (protein)
chain: MSLNFLDFEQPIAELEAKIDSLTAVSRQDEKLDINIDEEVHRLREKSVELTRKIFADLGAWQIAQLARHPQRPYTLDYVRLAFDEFDELAGDRAYADDKAIVGGIARLDGRPVAIIGHQKGRETKEKIRRNFGMPAPEGYRKALRLMQMAERFKMPIITFIDTPGAYPGVGAEERGQSEAIARNLREMSRLGVPVVCTVIGEGGSGGALAIGVGDKVNMLQYSTYSVISPEGCASILWKSADKAPLAAEAMGIIAPRLKELKLIDSIIPEPLGGAHRNPEAMAASLKAQLLADLADLDVLSTEDLKNRRYQRLMSYGYA

molecular target: Escherichia coli (laboratory strain); experiment: barcode share on antibiotic plates over drug-free plates; higher = less susceptible; conditions: antibiotic: carbenicillin; 2× MIC (3.1 µg/mL)
Experimental: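 A pool of E. coli strains, each edited to carry one amino-acid change in an essential protein, was grown for 48 h on minimal glucose agar with or without antibiotic; strain barcodes were sequenced; mean of two replicates.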

| Protein | fold change of barcode share |
| --- | --- |
| B1 | 0.96 ± 0.14 |
| B2 | 0.473 ± 0.039 |
| B3 | 0.538 ± 0.059 |
| B4 | 0.467 ± 0.11 |
| B5 | 0.432 ± 0.052 |
| B6 | 0.399 ± 0.092 |
| B7 | 0.624 ± 0.25 |
| B8 | 0.429 ± 0.2 |
| B9 | 0.3212 ± 0.0018 |
| B10 | 0.379 ± 0.062 |

same assay, conditions: antibiotic: gentamicin; 2× MIC (MIC 0.45 µg/mL)

| Protein | fold change of barcode share |
| --- | --- |
| B1 | 0.00708 ± 0.0046 |
| B2 | < 0.00349 |
| B3 | 0.0177 ± 0.017 |
| B4 | < 0.00312 |
| B5 | 0.00643 ± 0.0032 |
| B6 | < 0.00533 |
| B7 | < 0.0131 |
| B8 | < 0.011 |
| B9 | < 0.00996 |
| B10 | 0.00358 ± 0.0019 |
